Out of some 45,000 compounds screened, about 65 (0.1%) were called active. The call rests on the fitted dose curve; in most records, active means well fitted activation curve with a large enough effect; inconclusive means small, poorly fitted or top-dose-only effect; inactive means no such curve, though single readings can be large or run the other way. The list shows a part of the results.
molecular target: Galactocerebrosidase (Homo sapiens) (UniProt P54803); test: A Novel Cell-Based Assay to Identify Small Molecules for B -Galactocerebrosidase; settings: 145M-Twi-hGALC-G270D cells (Twitcher mouse brain line with human GALC G270D), HMU-beta-Gal fluorescence, 48 h; series mostly up to 57.5 µM; activation: at the top concentration; further: 0% is about no effect; nearly all actives have a fitted effect of over 65% in size
UniProt P54803, sequence (P54803 whole entry, looked up): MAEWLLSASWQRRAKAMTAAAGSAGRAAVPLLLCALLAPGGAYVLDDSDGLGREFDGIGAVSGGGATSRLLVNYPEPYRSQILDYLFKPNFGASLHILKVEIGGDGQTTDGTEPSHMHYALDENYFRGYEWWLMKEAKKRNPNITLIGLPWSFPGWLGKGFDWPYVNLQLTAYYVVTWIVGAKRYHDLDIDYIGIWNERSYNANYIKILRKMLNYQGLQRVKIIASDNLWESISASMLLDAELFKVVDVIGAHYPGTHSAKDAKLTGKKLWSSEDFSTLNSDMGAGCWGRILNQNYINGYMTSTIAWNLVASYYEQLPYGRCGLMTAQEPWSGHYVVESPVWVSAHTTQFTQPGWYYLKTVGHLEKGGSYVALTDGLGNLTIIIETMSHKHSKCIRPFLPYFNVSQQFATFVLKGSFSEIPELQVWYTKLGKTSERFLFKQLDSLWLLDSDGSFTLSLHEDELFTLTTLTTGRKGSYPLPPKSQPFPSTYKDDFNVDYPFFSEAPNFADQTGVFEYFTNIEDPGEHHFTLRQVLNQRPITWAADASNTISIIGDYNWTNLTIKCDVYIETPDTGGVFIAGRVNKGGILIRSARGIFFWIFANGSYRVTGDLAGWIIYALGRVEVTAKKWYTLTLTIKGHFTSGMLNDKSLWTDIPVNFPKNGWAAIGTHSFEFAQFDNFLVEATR
Outline: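 Fluorogenic HMU-b-Gal hydrolysis (0.1 mM final, pH 5.2 citrate-phosphate with 1 mg/mL sodium taurocholate; carbonate stop buffer) measures mutant GALC activity after compound treatment of live 145M-Twi Twitcher brain cells stably carrying human GALC-G270D, with wild-type GALC line alongside; activation sought.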

activation, inactive:
COc1ccccc1OCCSc1nc2ccccc2n1CC(=O)N1CCOCC1 7.68%
C#CCSc1nc2sc3c(c2c(=O)n1Cc1ccccc1)CCCC3 4%
COc1ccc(NC(=O)c2sc3nc(-c4ccc(OC)cc4)cc(C(F)(F)F)c3c2N)cc1 -9.18%
Cc1ccc(C)c(CN2C(=O)c3ccccc3S(=O)(=O)c3ccc(C(=O)N4CCN(c5ccccc5)CC4)cc32)c1 -11.2%
CC1CCCCN1S(=O)(=O)c1ccc(C(=O)Nc2sc3c(c2C(N)=O)CC(C)(C)NC3(C)C)cc1 (stereo not drawn) -27.5%
Cc1ccccc1Nc1c(-c2ccco2)nc2c(C)cccn12 -10.3%
Cc1n[nH]c(C)c1S(=O)(=O)N(CC(=O)Nc1ccc(C(F)(F)F)cc1)c1ccc(C(C)C)cc1 -15.9%
Cc1ccc(CS(=O)(=O)c2ncc(Cl)c(C(=O)Nc3nc4ccc(C)cc4s3)n2)cc1 -7.32%
Cc1ccc(-c2onc(C)c2C)cc1S(=O)(=O)N1c2ccccc2CC1C (stereo not drawn) -15.7%
COc1ccc(CCNC(=O)c2c(O)nc3c(C)cccn3c2=O)cc1 -14.2%
Cc1cccc(NC(=O)Cn2c(=O)n(CCCS(=O)(=O)C3CCCCC3)c(=O)c3ccccc32)c1 1.06%
CCCCN(CCCC)CCNC(=O)Cn1nc(CC)n2c(cc3sc(C)cc32)c1=O -5.95%
O=S1(=O)c2ccccc2N(Cc2cccc(C(F)(F)F)c2)c2ccccc21 -7.49%
CCOC(=O)c1ccc(-n2c(C)nc3c(cnn3-c3ccc(Cl)cc3)c2=O)cc1 -12.3%
CCOCCCNC(=O)c1[nH]c2cc(C)ccc2c1Sc1ccc(Cl)cc1 -11.8%
COc1cccc(-c2nc(SCC(=O)Nc3ccc4c(c3)OCCO4)c(-c3ccccc3)[nH]2)c1 -13.8%
O=C(NCCn1cc(SCc2ccc(Cl)cc2)c2ccccc21)c1cccs1 -8.05%
CN(C)CCNC(=O)Cn1c(=O)c2cccn2c2ccc(F)cc21 9.35%
COc1cc(OC)c(N(C)C(=O)CCNC(=O)Cn2cnc3ccccc3c2=O)cc1Cl -3.19%
CCOCCc1nn2c(=O)cc(COC(=O)c3ccccc3NC(=O)C3CCCCC3)nc2s1 -6.4%
COc1ccccc1-c1nc2c(c(SCC(=O)Nc3ccc(C)c(C)c3)n1)Cc1c(CO)cnc(C)c1O2 -5.09%
Cc1ccccc1NC(=O)Cn1c(=O)oc2cc(Br)ccc21 -3.03%
Cc1ccc(NC(=O)c2cccc3c2C(=O)N(C2CCCCC2)C3)c(C)c1 -2.35%
COc1ccc(C2=C(C)C(=NCCCN3CCN(c4cc(C)ccc4C)CC3)NS2(=O)=O)cc1 -11.7%
COc1ccc(N(CC(=O)Nc2cccc(Cl)c2C)S(=O)(=O)c2c(C)nn(C)c2C)cc1 -11.1%
COc1cccc(Cn2c(CNC(=O)Cc3cccc(C)c3)nc3cccnc32)c1 -6.74%
Cc1ccc(C)c(NC(=O)Cn2cc(C(=O)c3ccco3)c3ccccc32)c1 -12.3%
CCCCN(CC)CCCNC(=O)c1nn(C)c2c1CS(=O)(=O)c1ccccc1-2 -7.67%
CCc1c(C)sc(NC(=O)c2cc(-c3cccc(Cl)c3)on2)c1C#N -20.7%
CCOC(=O)C1CCCN(c2cc(C)nc3c(-c4ccccc4OC)c(C)nn23)C1 (stereo not drawn) -9.69%
CC1=C(C(=O)OC(C)C)C(c2cccc([N+](=O)[O-])c2)C(C(=O)OC2CN(C(c3ccccc3)c3ccccc3)C2)=C(N)N1 (stereo not drawn) -15.9%
Cc1c(C)n(C)c2ccc(C(=O)NCCCN3CCCCC3C)cc12 (stereo not drawn) 0.872%
O=C(c1cc2c(s1)-c1ccccc1OC2)N1CCN(c2ccccc2F)CC1 -13.5%
CCOC(=O)c1ccc(N2C(=O)c3n[nH]c(-c4ccco4)c3C2c2ccc(O)cc2)cc1 (stereo not drawn) 1.76%
COc1ccc(C)cc1NC(=O)c1c(C)oc2ncn(CC(C)C)c(=O)c12 -4.25%
CCCn1cc(S(=O)(=O)c2ccccc2)c(=O)c2cc(F)c(N3CCCC(C)C3)cc21 (stereo not drawn) -5.16%
CCCCCOc1c(Cl)cc(C(=O)N(Cc2ccc(C)o2)C2CCS(=O)(=O)C2)cc1Cl (stereo not drawn) -8.37%
CCCN(CCC)CCCNC(=O)C1CCN(S(=O)(=O)CC)CC1 -0.935%
COc1ccc(C)c2sc(N(Cc3cccnc3)C(=O)C3CCCCC3)nc12 -12.3%
Cc1ccc(S(=O)(=O)c2cc3cc(C(=O)O)ccc3oc2=O)cc1 -18%
CCN[C@@H]1C[C@H](N)[C@@H](OC2OC(CN)=CCC2N)[C@H](O)[C@H]1O[C@H]1OC[C@](C)(O)[C@H](NC)[C@H]1O (stereo partly drawn) -14.3% [at 0.46 µM]
CCn1cc(CCC(=O)NCc2ccccc2OC)c2ccccc21 4.93%
Cc1ccc(S(=O)(=O)CC(=O)Nc2sc3c(c2C#N)CCCC3)cc1 -5.19%
Cc1ccc(CSCC(=O)N2CCN(c3ccccc3F)CC2)cc1 -15.6%
Cc1cc(C2CCCCC2)n(O)c(=O)c1 -32.9%
CCOC(=O)Cn1c(=O)n(C2CCCCC2)c2nc(-c3cccc(F)c3)nc(C(N)=O)c21 -13.4%
CC1=C(C(=O)Nc2ccccc2)C(c2cccnc2)n2nc(SCc3ccccc3Cl)nc2N1 (stereo not drawn) -2.29%
CCOc1cccc(C(c2c(C)n(C)n(-c3ccccc3)c2=O)c2c(C)n(C)n(-c3ccccc3)c2=O)c1OC -4.79%
CCOC(=O)c1c(NC(=O)COc2cc(C)ccc2C(C)C)sc(C)c1C -7.49%
CCOc1ccccc1NC(=O)Cn1c(=O)n(-c2ccc(F)cc2)c(=O)c2sc3ccccc3c21 -10.2%
COc1ccc(CCNC(=O)CCCn2c(=O)c3ccccc3n(CC(=O)Nc3cc(Cl)ccc3C)c2=O)cc1OC -6.88%
CCOc1ccc(NC(=O)c2nn(C)c3c2CS(=O)(=O)c2ccccc2-3)cc1 -4.96%
COc1ccc2cc(C=O)ccc2c1 -12.2%
CCOc1ccc(-c2nnc(SCC(=O)NCCc3ccc(OC)c(OC)c3)nc2-c2ccc(OCC)cc2)cc1 -13.8%
COc1cc(Cl)c(C)cc1NC(=O)c1cn(C2CCCC2)c(=O)c2c1c1ccccc1n2C -17.5%
COc1ccc(C(=O)Nc2ccc3nc(N4CCC(C)CC4)cc(C)c3c2)cc1 24.9%
O=C(c1cccc(Cl)c1)N1CCN(CCc2ccncc2)CC1 -8.85%
Cc1ccccc1-c1noc(CCC(=O)Nc2cccc(C)c2C)n1 -20.6%
O=C(Nc1cccc(OCc2cc(=O)n3c4c(sc3n2)CCCC4)c1)c1ccc(F)cc1 -6.35%
Cc1ccc2nc(-c3cc(NC(=O)/C=C/c4ccccc4)ccc3Cl)oc2c1 -14.4%
COc1ccc(-c2nc(CSc3nncn4c3cc3occc34)c(C)o2)cc1 -6.37%
COc1cc(C(=O)NS(=O)(=O)c2ccccc2C)ccc1Cc1cn(C)c2ccc(NC(=O)OC3CCCC3)cc12 -20%
CCOCCCNC(=O)C(Cc1ccccc1)NS(=O)(=O)c1ccc2c(c1)c(=O)n(C)c(=O)n2C (stereo not drawn) -9.08%
COc1ccc(Cl)cc1-n1c(/C=C/c2cccc3ccccc23)nc2ccccc2c1=O -20.8%
CCOc1ccc(NC(=O)c2cc(S(=O)(=O)N3CCCCC3)c[nH]2)cc1 20.7%
CN1C(C(=O)Nc2ccccn2)=C(O)c2sccc2S1(=O)=O -16.7%
Cc1ccc2oc(=O)c3cnn(CC(=O)N4CCN(c5cc(Cl)ccc5C)CC4)c3c2c1 -13.6%
COc1cccc(CNc2nc3c(-c4ccccc4)nnn3c3ccccc23)c1 2.71%
COc1ccc(CCNC(=O)Cn2c(=O)n(-c3cc(OC)c(OC)c(OC)c3)c(=O)c3ccccc32)cc1OC -21.9%
CN(Cc1ccccc1)C(=O)CSc1nc2ccsc2c(=O)n1-c1ccc(F)cc1 9.45%
CCOc1ccc(CCNCc2c(C(=O)O)n(Cc3ccc(C)cc3)c3cc(OC)ccc23)cc1 -7.81%
COc1cccc(NS(=O)(=O)c2ccc3[nH]cc(C(=O)NCCc4ccccc4)c(=O)c3c2)c1 -3.96%
CC(CSC(=O)c1ccccc1)C(=O)N1C[C@@H](Sc2ccccc2)C[C@H]1C(=O)O (stereo partly drawn) -19.3% [at 23.8 µM]
O=S(=O)(c1ccccc1F)N1CCC(Oc2ccc(-n3cnnn3)cc2)CC1 -7.89%
CCc1ccccc1NC(=O)Cn1c(=O)n(CC2CCC(C(=O)NCCc3ccccc3)CC2)c(=O)c2ccccc21 (stereo not drawn) 5.52%
COc1ccc(NC(=O)CCc2nnc3n(C)c(=O)c4sccc4n23)cc1Cl 3.45%
CCn1cc(C(=O)NCCCN(CC(C)C)CC(C)C)c(=O)c2cc(S(=O)(=O)N(C)C3CCCCC3)ccc21 -8.25%
COc1cccc(N2C(=O)N(Cc3ccc(C#N)cc3)c3ccccc3S2(=O)=O)c1 -4.38%
COc1ccc(-c2noc(-c3ccc(NCc4cccnc4)c([N+](=O)[O-])c3)n2)cc1 1.46%
CCC(=O)N1CCc2cc(Br)cc(S(=O)(=O)CCC(=O)Nc3ccc(C)c(C)c3)c21 -14.1%
CCc1ccc(NC(=O)C(=O)NCC(c2ccc3c(c2)OCO3)N2CCOCC2)cc1 (stereo not drawn) -8.78%
Cc1ccc(S(=O)(=O)c2nc(-c3ccccc3Cl)oc2N2CCCCCC2)cc1 -33.4%
COc1ccc(C2=NS(=O)(=O)N(C)C(C(=O)NCc3ccccc3)=C2)cc1OC -19%
Cc1ncc([N+](=O)[O-])n1CC(O)CCl (stereo not drawn) -3.66%
Cc1ccc(Cl)c(NC(=O)Nc2csc3c2CCCC3)c1 -12%
CCn1c(=O)n(-c2ccc(F)c(Cl)c2)c(=O)c2c3c(sc21)CN(C(C)=O)CC3 -16.8%
COc1cccc(C(=O)Nc2ccc(-c3nc4ccccc4s3)cc2Cl)c1 -1.55%
CCOC(=O)c1nc(N2CCN(c3ccc(F)cc3)CC2)c2c(C)noc2n1 -5.17%
CCCC(=O)N(c1ccc2oc(C)c(C(C)=O)c2c1)S(=O)(=O)c1ccc(C)cc1 -29.6%
COc1ccc(NC(=O)CCCc2nnc3n(CCC(C)C)c(=O)c4sccc4n23)c(OC)c1 -20.9%
COc1ccc(-c2csc3nc(-c4ccc(F)cc4)oc(=O)c23)cc1 8.13%
COCCNC(=O)c1ccc(-n2c(-c3ccccc3)cc3c2CCCCC3)cc1 1.69%
COc1cccc(N2C(=O)CSC23C(=O)N(Cc2ccccc2)c2ccccc23)c1 (stereo not drawn) -19%

Reference: PubChem BioAssay AID1159614 (National Center for Advancing Translational Sciences (NCATS), 2016)
